± gives the standard deviation of the averaged measurements. Laboratory Escherichia coli strains with one amino-acid change in an essential protein, pooled on minimal glucose agar with carbenicillin or gentamicin at twice the control MIC (plus kanamycin and chloramphenicol for the plasmids), 48 h. Fold change of barcode share against drug-free plates; higher = less susceptible. Active = above 20 in both replicates (the paper's putatively resistant). '<' = one read or none on drug, '>' = one read or none on a drug-free plate. Shares are relative, so most strains fall below 1 when a few take over. Listed are strains with at least 15 reads on both drug-free plates, and hits; most hits rest on fewer reference reads. Replicate rank correlation about 0.5. Edits are read from barcodes.
Target: Escherichia coli (laboratory strain)
Test: barcode share on antibiotic plates over drug-free plates; higher = less susceptible
Settings: antibiotic: gentamicin; 2× MIC (MIC 0.45 µg/mL)
Method: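 A pool of E. coli strains, each edited to carry one amino-acid change in an essential protein, was grown for 48 h on minimal glucose agar with or without antibiotic; strain barcodes were sequenced; mean of two replicates.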

| Protein | fold change of barcode share |
| --- | --- |
| pdxB L104A (protein) MKILVDENMPYARDLFSRLGEVTAVPGRPIPVAQLADADALMVRSVTKVNESLLAGKPIKFVGTATAGTDHVDEAWLKQAGIGFSAAPGCNAIAVVEYVFSSLAMLAERDGFSLYDRTVGIVGVGNVGRRLQARLEALGIKTLLCDPPRADRGDEGDFRSLDELVQRADILTFHTPLFKDGPYKTLHLADEKLIRSLKPGAILINACRGAVVDNTALLTCLNEGQKLSVVLDVWEGEPELNVELLKKVDIGTSHIAGYTLEGKARGTTQVFEAYSKFIGHEQHVALDTLLPAPEFGRITLHGPLDQPTLKRLVHLVYDVRRDDAPLRKVAGIPGEFDKLRKNYLERREWSSLYVICDDASAASLLCKLGFNAVHHPAR | < 0.0124 |
| ppc V809A (protein) MNEQYSALRSNVSMLGKVLGETIKDALGEHILERVETIRKLSKSSRAGNDANRQELLTTLQNLSNDELLPVARAFSQFLNLANTAEQYHSISPKGEAASNPEVIARTLRKLKNQPELSEDTIKKAVESLSLELVLTAHPTEITRRTLIHKMVEVNACLKQLDNKDIADYEHNQLMRRLRQLIAQSWHTDEIRKLRPSPVDEAKWGFAVVENSLWQGVPNYLRELNEQLEENLGYKLPVEFVPVRFTSWMGGDRDGNPNVTADITRHVLLLSRWKATDLFLKDIQVLVSELSMVEATPELLALVGEEGAAEPYRYLMKNLRSRLMATQAWLEARLKGEELPKPEGLLTQNEELWEPLYACYQSLQACGMGIIANGDLLDTLRRVKCFGVPLVRIDIRQESTRHTEALGELTRYLGIGDYESWSEADKQAFLIRELNSKRPLLPRNWQPSAETREVLDTCQVIAEAPQGSIAAYVISMAKTPSDVLAVHLLLKEAGIGFAMPVAPLFETLDDLNNANDVMTQLLNIDWYRGLIQGKQMVMIGYSDSAKDAGVMAASWAQYQAQDALIKTCEKAGIELTLFHGRGGSIGRGGAPAHAALLSQPPGSLKGGLRVTEQGEMIRFKYGLPEITVSSLSLYTGAILEANLLPPPEPKESWRRIMDELSVISCDVYRGYVRENKDFVPYFRSATPEQELGKLPLGSRPAKRRPTGGVESLRAIPWIFAWTQNRLMLPAWLGAGTALQKVVEDGKQSELEAMCRDWPFFSTRLGMLEMVFAKADLWLAEYYDQRLVDKALWPLGKELRNLQEEDIKVALAIANDSHLMADLPWIAESIQLRNIYTDPLNVLQAELLHRSRQAEKEGQEPDPRVEQALMVTIAGIAAGMRNTG | 0.00862 ± 0.0019 |
| ppc V809P (protein) MNEQYSALRSNVSMLGKVLGETIKDALGEHILERVETIRKLSKSSRAGNDANRQELLTTLQNLSNDELLPVARAFSQFLNLANTAEQYHSISPKGEAASNPEVIARTLRKLKNQPELSEDTIKKAVESLSLELVLTAHPTEITRRTLIHKMVEVNACLKQLDNKDIADYEHNQLMRRLRQLIAQSWHTDEIRKLRPSPVDEAKWGFAVVENSLWQGVPNYLRELNEQLEENLGYKLPVEFVPVRFTSWMGGDRDGNPNVTADITRHVLLLSRWKATDLFLKDIQVLVSELSMVEATPELLALVGEEGAAEPYRYLMKNLRSRLMATQAWLEARLKGEELPKPEGLLTQNEELWEPLYACYQSLQACGMGIIANGDLLDTLRRVKCFGVPLVRIDIRQESTRHTEALGELTRYLGIGDYESWSEADKQAFLIRELNSKRPLLPRNWQPSAETREVLDTCQVIAEAPQGSIAAYVISMAKTPSDVLAVHLLLKEAGIGFAMPVAPLFETLDDLNNANDVMTQLLNIDWYRGLIQGKQMVMIGYSDSAKDAGVMAASWAQYQAQDALIKTCEKAGIELTLFHGRGGSIGRGGAPAHAALLSQPPGSLKGGLRVTEQGEMIRFKYGLPEITVSSLSLYTGAILEANLLPPPEPKESWRRIMDELSVISCDVYRGYVRENKDFVPYFRSATPEQELGKLPLGSRPAKRRPTGGVESLRAIPWIFAWTQNRLMLPAWLGAGTALQKVVEDGKQSELEAMCRDWPFFSTRLGMLEMVFAKADLWLAEYYDQRLVDKALWPLGKELRNLQEEDIKVPLAIANDSHLMADLPWIAESIQLRNIYTDPLNVLQAELLHRSRQAEKEGQEPDPRVEQALMVTIAGIAAGMRNTG | 0.0256 ± 0.014 |
| plsC F20A (protein) MLYIFRLIITVIYSILVCVAGSIYCLFSPRNPKHVATFGHMFGRLAPLFGLKVECRKPTDAESYGNAIYIANHQNNYDMVTASNIVQPPTVTVGKKSLLWIPFFGQLYWLTGNLLIDRNNRTKAHGTIAEVVNHFKKRRISIWMFPEGTRSRGRGLLPFKTGAFHAAIAAGVPIIPVCVSTTSNKINLNRLHNGLVIVEMLPPIDVSQYGKDQVRELAAHCRSIMEQKIAELDKEVAEREAAGKV | < 0.0196 |
| plsC I23P (protein) MLYIFRLIITVIYSILVCVFGSPYCLFSPRNPKHVATFGHMFGRLAPLFGLKVECRKPTDAESYGNAIYIANHQNNYDMVTASNIVQPPTVTVGKKSLLWIPFFGQLYWLTGNLLIDRNNRTKAHGTIAEVVNHFKKRRISIWMFPEGTRSRGRGLLPFKTGAFHAAIAAGVPIIPVCVSTTSNKINLNRLHNGLVIVEMLPPIDVSQYGKDQVRELAAHCRSIMEQKIAELDKEVAEREAAGKV | < 0.0157 |
| plsC F20W (protein) MLYIFRLIITVIYSILVCVWGSIYCLFSPRNPKHVATFGHMFGRLAPLFGLKVECRKPTDAESYGNAIYIANHQNNYDMVTASNIVQPPTVTVGKKSLLWIPFFGQLYWLTGNLLIDRNNRTKAHGTIAEVVNHFKKRRISIWMFPEGTRSRGRGLLPFKTGAFHAAIAAGVPIIPVCVSTTSNKINLNRLHNGLVIVEMLPPIDVSQYGKDQVRELAAHCRSIMEQKIAELDKEVAEREAAGKV | 0.014 ± 0.00041 |
| pssA V346Q (protein) MLSKFKRNKHQQHLAQLPKISQSVDDVDFFYAPADFRETLLEKIASAKQRICIVALYLEQDDGGKGILNALYEAKRQRPELDVRVLVDWHRAQRGRIGAAASNTNADWYCRMAQENPGVDVPVYGVPINTREALGVLHFKGFIIDDSVLYSGASLNDVYLHQHDKYRYDRYHLIRNRKMSDIMFEWVTQNIMNGRGVNRLDDVNRPKSPEIKNDIRLFRQELRDAAYHFQGDADNDQLSVTPLVGLGKSSLLNKTIFHLMPCAEQKLTICTPYFNLPAILVRNIIQLLREGKKVEIIVGDKTANDFYIPEDEPFKIIGALPYLYEINLRRFLSRLQYYVNTDQLVQRLWKDDDNTYHLKGMWVDDKWMLITGNNLNPRAWRLDLENAILIHDPQLELAPQREKELELIREHTTIVKHYRDLQSIADYPVKVRKLIRRLRRIRIDRLISRIL | < 0.0195 |
| pssA I370A (protein) MLSKFKRNKHQQHLAQLPKISQSVDDVDFFYAPADFRETLLEKIASAKQRICIVALYLEQDDGGKGILNALYEAKRQRPELDVRVLVDWHRAQRGRIGAAASNTNADWYCRMAQENPGVDVPVYGVPINTREALGVLHFKGFIIDDSVLYSGASLNDVYLHQHDKYRYDRYHLIRNRKMSDIMFEWVTQNIMNGRGVNRLDDVNRPKSPEIKNDIRLFRQELRDAAYHFQGDADNDQLSVTPLVGLGKSSLLNKTIFHLMPCAEQKLTICTPYFNLPAILVRNIIQLLREGKKVEIIVGDKTANDFYIPEDEPFKIIGALPYLYEINLRRFLSRLQYYVNTDQLVVRLWKDDDNTYHLKGMWVDDKWMLATGNNLNPRAWRLDLENAILIHDPQLELAPQREKELELIREHTTIVKHYRDLQSIADYPVKVRKLIRRLRRIRIDRLISRIL | 0.0271 ± 0.018 |
| pdxH V112A (protein) MSDNDELQQIAHLRREYTKGGLRRRDLPADPLTLFERWLSQACEAKLADPTAMVVATVDEHGQPYQRIVLLKHYDEKGMVFYTNLGSRKAHQIENNPRVSLLFPWHTLERQAMVIGKAERLSTLEVMKYFHSRPRDSQIGAWVSKQSSRISARGILESKFLELKQKFQQGEVPLPSFWGGFRVSLEQIEFWQGGEHRLHDRFLYQRENDAWKIDRLAP | < 0.0182 |
| purD M336A (protein) MKVLVIGNGGREHALAWKAAQSPLVETVFVAPGNAGTALEPALQNVAIGVTDIPALLDFAQNEKIDLTIVGPEAPLVKGVVDTFRAAGLKIFGPTAGAAQLEGSKAFTKDFLARHKIPTAEYQNFTEVEPALAYLREKGAPIVIKADGLAAGKGVIVAMTLEEAEAAVHDMLAGNAFGDAGHRIVIEEFLDGEEASFIVMVDGEHVLPMATSQDHKRVGDKDTGPNTGGMGAYSPAPVVTDDVHQRTMERIIWPTVKGMAAEGNTYTGFLYAGLMIDKQGNPKVIEFNCRFGDPETQPIMLRMKSDLVELCLAACESKLDEKTSEWDERASLGVVAAAGGYPGDYRTGDVIHGLPLEEVAGGKVFHAGTKLADDEQVVTNGGRVLCVTALGHTVAEAQKRAYALMTDIHWDDCFCRKDIGWRAIEREQN | 0.0357 ± 0.046 |
| plsB L347Q (protein) MSGWPRIYYKLLNLPLSILVKSKSIPADPAPELGLDTSRPIMYVLPYNSKADLLTLRAQCLAHDLPDPLEPLEIDGTLLPRYVFIHGGPRVFTYYTPKEESIKLFHDYLDLHRSNPNLDVQMVPVSVMFGRAPGREKGEVNPPLRMLNGVQKFFAVLWLGRDSFVRFSPSVSLRRMADEHGTDKTIAQKLARVARMHFARQRLAAVGPRLPARQDLFNKLLASRAIAKAVEDEARSKKISHEKAQQNAIALMEEIAANFSYEMIRLTDRILGFTWNRLYQGINVHNAERVRQLAHDGHELVYVPCHRSHMDYLLLSYVLYHQGLVPPHIAAGINLNFWPAGPIFRRQGAFFIRRTFKGNKLYSTVFREYLGELFSRGYSVEYFVEGGRSRTGRLLDPKTGTLSMTIQAMLRGGTRPITLIPIYIGYEHVMEVGTYAKELRGATKEKESLPQMLRGLSKLRNLGQGYVNFGEPMPLMTYLNQHVPDWRESIDPIEAVRPAWLTPTVNNIAADLMVRINNAGAANAMNLCCTALLASRQRSLTREQLTEQLNCYLDLMRNVPYSTDSTVPSASASELIDHALQMNKFEVEKDTIGDIIILPREQAVLMTYYRNNIAHMLVLPSLMAAIVTQHRHISRDVLMEHVNVLYPMLKAELFLRWDRDELPDVIDALANEMQRQGLITLQDDELHINPAHSRTLQLLAAGARETLQRYAITFWLLSANPSINRGTLEKESRTVAQRLSVLHGINAPEFFDKAVFSSLVLTLRDEGYISDSGDAEPAETMKVYQLLAELITSDVRLTIESATQGEG | < 0.0213 |
